Assay results published in publication PMC4336329 (PLoS ONE, 2015).
About 2,200 (0.71%) of roughly 310,000 compounds showed an effect of 50% or more. The effect is printed as a negative number. This is one part of the list.

Target: human ether-à-go-go-related gene (hERG) potassium channel (human, UniProt Q12809)
Assay: primary screen, population patch clamp on CHO cells stably expressing hERG

Sequence of human ether-à-go-go-related gene (hERG) potassium channel (Q12809 whole entry, looked up): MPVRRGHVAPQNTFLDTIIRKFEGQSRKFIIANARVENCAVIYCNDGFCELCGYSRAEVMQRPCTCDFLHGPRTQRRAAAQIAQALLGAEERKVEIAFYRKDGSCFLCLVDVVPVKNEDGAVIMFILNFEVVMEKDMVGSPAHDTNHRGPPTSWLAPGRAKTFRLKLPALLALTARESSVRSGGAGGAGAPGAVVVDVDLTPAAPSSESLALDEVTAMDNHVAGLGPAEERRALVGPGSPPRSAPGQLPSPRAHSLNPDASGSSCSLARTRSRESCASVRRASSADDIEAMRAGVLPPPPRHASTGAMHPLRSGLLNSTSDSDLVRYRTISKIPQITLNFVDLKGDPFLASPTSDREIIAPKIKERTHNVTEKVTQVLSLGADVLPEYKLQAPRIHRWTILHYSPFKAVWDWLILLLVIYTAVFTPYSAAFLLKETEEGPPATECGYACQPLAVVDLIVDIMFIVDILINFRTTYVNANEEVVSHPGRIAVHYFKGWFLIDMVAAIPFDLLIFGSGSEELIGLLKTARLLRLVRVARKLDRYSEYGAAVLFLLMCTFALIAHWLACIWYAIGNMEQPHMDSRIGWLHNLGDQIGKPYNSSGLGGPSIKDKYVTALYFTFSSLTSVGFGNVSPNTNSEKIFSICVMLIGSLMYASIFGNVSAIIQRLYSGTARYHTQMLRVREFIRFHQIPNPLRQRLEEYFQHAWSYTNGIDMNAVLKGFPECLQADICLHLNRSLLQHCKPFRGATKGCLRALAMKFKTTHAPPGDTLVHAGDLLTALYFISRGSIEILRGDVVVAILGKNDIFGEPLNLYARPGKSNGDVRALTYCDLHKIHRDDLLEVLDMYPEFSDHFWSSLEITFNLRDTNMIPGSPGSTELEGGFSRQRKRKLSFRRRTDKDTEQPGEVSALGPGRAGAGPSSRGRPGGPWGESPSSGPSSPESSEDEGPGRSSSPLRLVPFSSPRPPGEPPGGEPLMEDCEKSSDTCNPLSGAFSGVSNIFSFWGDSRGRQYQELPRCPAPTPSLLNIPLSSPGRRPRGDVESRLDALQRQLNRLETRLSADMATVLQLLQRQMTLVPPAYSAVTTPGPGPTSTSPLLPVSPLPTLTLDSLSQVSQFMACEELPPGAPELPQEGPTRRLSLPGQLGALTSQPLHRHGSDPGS

**Q.** `CCCN1CCC[C@@H](c2cccc(O)c2)C1.Cl` was tested. Which “hERG current change (%, negative = inhibition) at 1uM” value did it give?
**A.** -0.0439%

**Q.** For `CN(C)C1(CNC(=O)Nc2ccccc2)CCCCC1`, which “hERG current change (%, negative = inhibition) at 1uM” value is on record?
**A.** 12.3%

**Q.** Which “hERG current change (%, negative = inhibition) at 1uM” value does the source give for `CCOc1ccc(N2CC(C(=O)Nc3ccncc3)CC2=O)cc1` (stereo not shown) here?
**A.** 6.08%

**Q.** `Cc1ccc(C(c2c(C)[nH][nH]c2=O)c2c(C)[nH][nH]c2=O)cc1` was tested. Which “hERG current change (%, negative = inhibition) at 1uM” value did it give?
**A.** 15.5%

**Q.** How did the “hERG current change (%, negative = inhibition) at 1uM” value turn out when `CCN(CC(=O)NCc1ccc(Cl)cc1)S(=O)(=O)c1ccc(NC(C)=O)cc1` was run?
**A.** -7.15%

**Q.** `O=c1c2cccnc2n(-c2ccccc2)n1Cc1c(Cl)cccc1Cl` was tested. Which “hERG current change (%, negative = inhibition) at 1uM” value did it give?
**A.** 4.07%

**Q.** `Nc1cc(N)cc(C(=O)OCC(=O)Nc2cc(S(=O)(=O)N3CCCCC3)ccc2Cl)c1` was tested. Which “hERG current change (%, negative = inhibition) at 1uM” value did it give?
**A.** 13.8%

**Q.** `COc1cc2c(cc1OC)C1(Nc3c-2c(C)nn3-c2ccccc2)C(=O)Nc2ccccc21` (stereo not shown) was tested. Which “hERG current change (%, negative = inhibition) at 1uM” value did it give?
**A.** 4.86%

**Q.** How did the “hERG current change (%, negative = inhibition) at 1uM” value turn out when `O=C(NN=C(Cc1ccccc1)Cc1ccccc1)c1ccncc1` was run?
**A.** 4.05%

**Q.** `COc1ccc(C(C(=O)NCC2CCCO2)N(C(=O)Cn2nnc3ccccc32)c2ccccc2C(C)=O)cc1OC` (stereo not shown) was tested. Which “hERG current change (%, negative = inhibition) at 1uM” value did it give?
**A.** -1.08%

**Q.** Which “hERG current change (%, negative = inhibition) at 1uM” value does the source give for `CC1(C)Cc2c(sc3nn[nH]c(=O)c23)CO1` here?
**A.** 10.6%

**Q.** With `COc1cc(NC(=O)c2ccco2)c(OC)cc1NC(=O)c1cc(OC)c(OC)c(OC)c1` as the molecule, how does the “hERG current change (%, negative = inhibition) at 1uM” value read?
**A.** 15.3%

**Q.** `Fc1ccc(N2CCN(C(=S)NCC3CCCO3)CC2)cc1` (stereo not shown) was tested. Which “hERG current change (%, negative = inhibition) at 1uM” value did it give?
**A.** 8.3%

**Q.** For `O=C(Cc1ccc([N+](=O)[O-])cc1)Nc1ccc2c(c1)C(=O)NC2=O`, which “hERG current change (%, negative = inhibition) at 1uM” value is on record?
**A.** -12.8%

**Q.** How did the “hERG current change (%, negative = inhibition) at 1uM” value turn out when `CCOC(=O)c1cc(NC(=O)COC)ccc1O` was run?
**A.** 12.6%

**Q.** `COCCn1c(SCC(=O)Nc2cc(Cl)ccc2OC)nc2c(c1=O)SC(C)C2` (stereo not shown) was tested. Which “hERG current change (%, negative = inhibition) at 1uM” value did it give?
**A.** 7.35%

**Q.** For `O=C(Oc1ccc(OC(=O)c2ccco2)c(S(=O)(=O)c2ccc(Cl)cc2)c1)c1ccco1`, which “hERG current change (%, negative = inhibition) at 1uM” value is on record?
**A.** 5.98%

**Q.** Which “hERG current change (%, negative = inhibition) at 1uM” value does the source give for `CC(C)C(NC(=O)CN1C(=O)c2ccccc2S1(=O)=O)C(C)C` here?
**A.** 1.63%

**Q.** `CCOC(=O)c1ccc(NC(=O)N2CCCCC2)cc1` was tested. Which “hERG current change (%, negative = inhibition) at 1uM” value did it give?
**A.** 8.51%

**Q.** For `Cc1nnc(NC(=O)c2ccc(S(=O)(=O)N3CCc4ccccc4C3)cc2)o1`, which “hERG current change (%, negative = inhibition) at 1uM” value is on record?
**A.** 12.4%

**Q.** Which “hERG current change (%, negative = inhibition) at 1uM” value does the source give for `O=C(N/N=C/c1ccc(OCc2ccccc2)cc1)c1cc[n+](Cc2ccccc2)cc1.[Cl-]` here?
**A.** -2.36%

**Q.** For `Cc1cc2nc3n(c2cc1C)CC1CC(C(=O)NCc2cccc(Br)c2)N(C)C31` (stereo not shown), which “hERG current change (%, negative = inhibition) at 1uM” value is on record?
**A.** -13%

**Q.** For `Cc1ccc(-c2nc3ccccc3c(=O)n2Cc2ccccc2)cc1`, which “hERG current change (%, negative = inhibition) at 1uM” value is on record?
**A.** -6.52%

**Q.** `CCCCC(=O)N/N=C/c1cc([N+](=O)[O-])ccc1N1CCOCC1` was tested. Which “hERG current change (%, negative = inhibition) at 1uM” value did it give?
**A.** -5.25%

**Q.** `O=C(NCCc1cccs1)c1ccc(Cl)cc1` was tested. Which “hERG current change (%, negative = inhibition) at 1uM” value did it give?
**A.** 8.16%

**Q.** Which “hERG current change (%, negative = inhibition) at 1uM” value does the source give for `COc1ccc(CN(Cc2ccccn2)C(=O)CN2C(=O)COc3ccccc32)cc1` here?
**A.** 2.74%

**Q.** `COC(=O)c1c(-c2ccc(C)cc2)csc1NC(=O)c1c(-c2ccccc2)noc1C` was tested. Which “hERG current change (%, negative = inhibition) at 1uM” value did it give?
**A.** 12.1%

**Q.** How did the “hERG current change (%, negative = inhibition) at 1uM” value turn out when `Cn1ccnc1/C(=N\NC(=O)c1ccc(O)cc1)c1cccc([N+](=O)[O-])c1` was run?
**A.** -2.46%

**Q.** Which “hERG current change (%, negative = inhibition) at 1uM” value does the source give for `CCC(=NCCc1ccccc1)c1c(O)n(C)c(=O)n(C)c1=O` here?
**A.** 6.48%

**Q.** How did the “hERG current change (%, negative = inhibition) at 1uM” value turn out when `CN1CCN(c2nc3c(c(=O)n(C)c(=O)n3C)n2Cc2ccc(Cl)cc2)CC1` was run?
**A.** -5.48%

**Q.** Which “hERG current change (%, negative = inhibition) at 1uM” value does the source give for `Cc1noc(C(=O)N2CC3(C)CC2CC(C)(C)C3)c1Cl` (stereo not shown) here?
**A.** -9.17%

**Q.** For `Cn1c(SCC(=O)NC(=O)Nc2ccccc2)nnc1-c1ccncc1`, which “hERG current change (%, negative = inhibition) at 1uM” value is on record?
**A.** 9.09%

**Q.** `NCC(=O)CCC(=O)O` was tested. Which “hERG current change (%, negative = inhibition) at 1uM” value did it give?
**A.** 7.17%

**Q.** With `COC(=O)C(NC(=O)C(NC(=O)C1CCC(C)CC1)C(C)C)C(C)C` (stereo not shown) as the molecule, how does the “hERG current change (%, negative = inhibition) at 1uM” value read?
**A.** 12.3%

**Q.** Which “hERG current change (%, negative = inhibition) at 1uM” value does the source give for `O=C(/C=C/c1ccccc1)NCC(=O)N/N=C/c1ccco1` here?
**A.** 3.94%

**Q.** `COc1ccc(NC(=O)CSc2nccn2Cc2ccco2)cc1OC` was tested. Which “hERG current change (%, negative = inhibition) at 1uM” value did it give?
**A.** 5.8%

**Q.** `Clc1ccc(-c2cc(CN3CCCCC3)no2)cc1Cl` was tested. Which “hERG current change (%, negative = inhibition) at 1uM” value did it give?
**A.** 16.3%

**Q.** For `CNc1ncc(C(=O)C(C)(C)C)s1`, which “hERG current change (%, negative = inhibition) at 1uM” value is on record?
**A.** 6.47%

**Q.** `CC(C)N(C(=O)COC(=O)c1cncc(Br)c1)C(C)C` was tested. Which “hERG current change (%, negative = inhibition) at 1uM” value did it give?
**A.** 10.4%

**Q.** For `COC(=O)c1ccc2c(C)c(C(C)(C)O)[nH]c2c1`, which “hERG current change (%, negative = inhibition) at 1uM” value is on record?
**A.** 5.9%

**Q.** For `Cn1c(SCc2nc(-c3ccccc3)no2)nnc1-c1ccco1`, which “hERG current change (%, negative = inhibition) at 1uM” value is on record?
**A.** 2.71%

**Q.** `COc1ccccc1Oc1ccc(S(=O)(=O)N2CCCCC2)cc1NC(=O)CCNC(C)=O` was tested. Which “hERG current change (%, negative = inhibition) at 1uM” value did it give?
**A.** -3.14%

**Q.** `COC(=O)C1CCN(C(=O)COC(=O)CCc2nc3ccccc3c(=O)[nH]2)CC1` was tested. Which “hERG current change (%, negative = inhibition) at 1uM” value did it give?
**A.** 6.54%

**Q.** `COc1ccc(NC(=O)CNc2ccccc2N2CCCC2=O)cc1S(=O)(=O)N1CCOCC1` was tested. Which “hERG current change (%, negative = inhibition) at 1uM” value did it give?
**A.** 9.33%

**Q.** For `CCOC(=O)c1[nH]c2ccccc2c1NC(=O)NC(C)C`, which “hERG current change (%, negative = inhibition) at 1uM” value is on record?
**A.** 11.7%

**Q.** `Cc1ccc(S(=O)(=O)N2CCCCC2)cc1C(=O)N1CCCC1` was tested. Which “hERG current change (%, negative = inhibition) at 1uM” value did it give?
**A.** 11.6%
